In ChEMBL document CHEMBL1268867, “ATPases as drug targets: insights from heat shock proteins 70 and 90” (J Med Chem, 2010):

Test system: Nc1ncnc2c1ncn2[C@@H]1O[C@H](COP(=O)(O)OP(=O)(O)OP(=O)(O)O)[C@@H](O)[C@H]1O
Assay: Binding affinity to EGFR

With “Epidermal growth factor receptor (Homo sapiens) (letters omitted)” the Km was 17 µM.
